Measurements taken from PubChem BioAssay AID1476 (National Center for Advancing Translational Sciences (NCATS), 2009).
Several values for one entry are separate records, joined by “and”; a condition that tells them apart may be missing. Equal values may be shown once. Out of some 200,000 compounds screened, about 4,500 (2.2%) were called active. The inconclusive results got no clear call from the source; some entries with a clear call stand among them for comparison. Calls follow the shape of the dose curve; as a rule, active = well fitted inhibition curve with a large enough effect; inconclusive = small, poorly fitted or top-dose-only effect, or effect the other way; inactive = flat fitted curve, though single readings scatter. Potencies of inconclusive entries are doubtful fits and often do not repeat.

Molecular target: Cruzipain (Trypanosoma cruzi) (UniProt P25779)
Test: qHTS Assay for Promiscuous and Specific Inhibitors of Cruzain (without detergent); also: nearly all actives have a fitted effect of over 40% in size;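 as to max response, negative = inhibition: plate controls were enzyme without inhibitor for no effect and buffer without enzyme for full effect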
Conditions: purified cruzain, Z-FR-AMC fluorescence, no detergent
Procedure, shortened: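 Detergent-free condition (0.00005% Triton X-100) in acetate buffer pH 5.5 with DTT. 1.5 nM enzyme and compound were pre-mixed 15 min, then 2 uM Z-FR-AMC substrate added; reaction progress from fluorescence change between first and third reads (60 s).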
Potency is read from the fitted curve at half-maximal effect; tags tell the direction and shape of the fitted curve.

Chain of UniProt P25779 (P25779 whole entry, looked up): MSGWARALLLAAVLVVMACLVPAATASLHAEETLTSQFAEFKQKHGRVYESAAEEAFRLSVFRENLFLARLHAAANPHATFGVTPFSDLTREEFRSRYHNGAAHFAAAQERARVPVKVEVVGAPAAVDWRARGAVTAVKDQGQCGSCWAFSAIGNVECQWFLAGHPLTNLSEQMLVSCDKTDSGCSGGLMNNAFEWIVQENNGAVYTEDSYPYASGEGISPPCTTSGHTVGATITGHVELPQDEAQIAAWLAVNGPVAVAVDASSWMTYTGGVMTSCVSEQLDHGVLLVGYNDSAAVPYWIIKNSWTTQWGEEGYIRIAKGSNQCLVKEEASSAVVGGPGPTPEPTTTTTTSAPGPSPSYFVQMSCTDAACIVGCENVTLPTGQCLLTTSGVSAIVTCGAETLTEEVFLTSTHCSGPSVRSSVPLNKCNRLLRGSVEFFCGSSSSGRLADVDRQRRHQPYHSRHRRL

SMILES | Potency | max response, negative = inhibition
Cc1cc2c(cc1C)N(CC(=O)N1CCCC1)C(=O)CC(c1ccccc1)=N2 | inconclusive: 39.8 µM [activator, single point] | 
CCOC(=O)c1c(NC(=O)CC2SC(N)=NC2=O)sc2c1CCCC2 (stereo unspecified) | inconclusive: 39.8 µM [activator, single point] | 
Clc1cc(Br)ccc1OCCOCCOc1cccc2cccnc12 | inconclusive: 39.8 µM [activator, single point] | 
CC(=O)Nc1ccc(NC(=O)c2ccc(Cn3cc(Cl)cn3)cc2)cc1 | inconclusive: 39.8 µM [inhibitor, single point] | 
Cc1ccc(Oc2ncnc3sccc23)cc1 |  | inactive: -8.21%
CC(=O)Oc1ccc2c(c1C(C)C)CCC1C(C)(C)CCC[C@@]21C (stereo partly specified) |  | inactive: 14.7%
Cc1ccc(Cn2nnc3c(=O)[nH]c(C4CCN(C(=O)Cc5ccccc5F)CC4)nc32)cc1 | inconclusive: 31.6 µM [activator, single point] | 
CCOc1ccccc1Nc1nc2ccccc2c2nncn12 |  | inactive: -1.44%
Cc1cc(C(=O)CSc2nnnn2-c2ccc(Cl)cc2)c(C)n1CC1CCCO1 (stereo unspecified) | inconclusive: 39.8 µM [inhibitor, single point] | 
Nc1nc(Cl)nc2ccc(Br)cc12 | inconclusive: 31.6 µM [inhibitor, single point] | 
CC1CCc2nc(NC(=O)Nc3ccc4c(c3)OCO4)sc2C1 (stereo unspecified) | inconclusive: 5.01 µM [inhibitor, partial curve, poor fit] | 
Cc1c(Cl)cccc1-n1ncc(C(=O)N2CCN(c3ncccn3)CC2)c1C1CCN(C(=O)OC(C)(C)C)CC1 | inconclusive: 39.8 µM [activator, single point] | 
CC(C)N1CC(O)=C(c2nc3ccccc3[nH]2)C1=N |  | inactive: -14.2%
CCN(CC)c1ccc(NC(=O)c2cccn2-c2nnc(N3CCCCC3)s2)c(C)c1 |  | inactive: -11.9%
COc1cccc(Nc2ncc3nc(C)c(=O)n(C)c3n2)c1 |  | inactive: -16.6%
CCCOc1ccc(NC(=O)CC2C(=O)N(c3ccccc3)C(=O)N2Cc2ccco2)cc1 (stereo unspecified) | inconclusive: 39.8 µM [activator, single point] | 
CN(C)S(=O)(=O)c1ccc(C(=O)Nc2nnc(SCc3cccc4ccccc34)s2)cc1 | inconclusive: 31.6 µM [inhibitor, single point] | 
CN(c1ccccc1)S(=O)(=O)c1cccc(C(=O)Nc2ccc3c(c2)CCC3)c1 | inconclusive: 25.1 µM [inhibitor, single point] | 
Cc1ccc(-c2cc(C(=O)Nc3ccc(SC(F)F)cc3)no2)cc1F |  | inactive: 5.46%
COc1ccccc1CNC(=O)c1c[nH]c2ccc(S(=O)(=O)Nc3cc(C)cc(C)c3)cc2c1=O | inconclusive: 39.8 µM [inhibitor, single point] | 
Cc1ccc(N2C(=O)[C@@H]3[C@H](C2=O)C2CCCN2[C@@H]3C(=O)c2ccccc2)cc1 (stereo partly specified) | inconclusive: 39.8 µM [activator, single point] | 
CNc1nc(SC)nc(N(C#N)CC(=O)OC)n1 | active: 25.1 µM | 

SMILES | Potency | max response, negative = inhibition
Cc1ccccc1Cn1cc(S(=O)(=O)CC(=O)Nc2nccs2)c2ccccc21 | active: 15.8 µM | 
CCN(CC)S(=O)(=O)c1ccc(C)c(NC(=O)COC(=O)CNC(=O)c2ccc(C(C)(C)C)cc2)c1 | inconclusive: 31.6 µM [activator, single point] | 
CCOc1ccc(C(Nc2ccc(C)cc2)P2(=O)OCCC(C)O2)cc1 (stereo unspecified) | inconclusive: 39.8 µM [activator, single point] | 
CCOC(=O)C(C)(C)[C@H](O)C(C)C |  | inactive: -8.76%
CCOc1ccccc1/C=c1\sc2nc(-c3ccco3)nn2c1=O | inconclusive: 39.8 µM [activator, single point] | 
Cn1c(N)c(C(=O)COC(=O)C2CCC(C(C)(C)C)CC2)c(=O)n(C)c1=O (stereo unspecified) | inconclusive: 31.6 µM [activator, single point] | 
COc1cccc([C@@H]2Oc3ccc(OC)cc3C[C@H]2O)c1 |  | inactive: -4.38%
COCCc1nn2c(=O)cc(COC(=O)C(c3ccccc3)c3ccccc3)nc2s1 | inconclusive: 31.6 µM [activator, single point] | 
CCOC(=O)c1cnc2cc(-c3ccc(OCC)cc3)nn2c1-c1ccccc1 |  | inactive: -6.01%
Cc1ccc2nc(-c3ccc(NC(=O)c4ccc(N)cc4)c(S(=O)(=O)O)c3)sc2c1 | inconclusive: 3.98 µM [inhibitor, single point] | 
CCc1ccc(NC(=O)CC2C(=O)N(c3cccc(OC)c3)C(=O)N2Cc2ccc(F)cc2)cc1 (stereo unspecified) |  | inactive: 3.43%
Cc1nc2ccn(Cc3ccccc3)c(=O)c2cc1C(=O)N1CCN(c2ccc(F)cc2)CC1 | inconclusive: 31.6 µM [activator, single point] | 
NCCS(=O)(=O)O | inconclusive: 39.8 µM [activator, single point] | 
Cc1ccc2c(c1)c(C)c(C)n2CC(O)Cn1nc(C)cc1C (stereo unspecified) | inconclusive: 25.1 µM [activator, single point] | 
O=C(NC1CCCCC1)C(c1ccc(Cl)cc1)N(C(=O)c1cnccn1)c1ccc2c(c1)OCO2 (stereo unspecified) | inconclusive: 25.1 µM [activator, partial curve] | 
CC(Sc1nnc2ccc3ccccc3n12)C(=O)Nc1ccc(Cl)cc1 (stereo unspecified) |  | inactive: -7.97%
Cc1c(Cl)ccc2sc(N3CCN(C(=O)C(C)C)CC3)nc12 | inconclusive: 39.8 µM [activator, single point] | 
CCOC(=O)c1c(NC(=O)c2cc(C(C)C)on2)sc(C(C)=O)c1C |  | inactive: 16.3% and inactive: 3.3%
COC(=O)N[C@H](CC(C)=O)c1cccc(C(F)(F)F)c1 |  | inactive: -11%
CCc1ccc(CNC(=O)c2cc(=O)[nH]c3ccc(S(=O)(=O)N4CCCCC4)cc23)cc1 |  | inactive: 7.21%
O=C(NCCc1ccc(Cl)cc1)c1cnc2sc(N3CCOCC3)nn2c1=O |  | inactive: -5.44%
O=C(NCc1ccccc1Cl)c1ccc2c(c1)NC(=O)C(CS(=O)(=O)Cc1ccc(F)cc1Cl)N2 (stereo unspecified) | inconclusive: 25.1 µM [inhibitor, single point] | 

SMILES | Potency | max response, negative = inhibition
CN(C)c1ccc(CN(Cc2ccco2)C(=O)c2ccc(C(C)(C)C)cc2)cc1 |  | inactive: -12.9%
Cc1ccc(-c2nc3nc(C)cc(N4CCN(c5cccc(C)c5C)CC4)n3n2)cc1 |  | inactive: 1.89%
CCOC(=O)c1ccc(N2C(=O)c3n[nH]c(-c4cccs4)c3C2c2ccc(OCC)cc2)cc1 (stereo unspecified) | inconclusive: 25.1 µM [inhibitor, single point] | 
COc1ccc(OC)c(CCNC(=O)CS(=O)(=O)Cc2nc(-c3cccc(Cl)c3)oc2C)c1 | inconclusive: 39.8 µM [activator, single point] | 
CC[C@@]1(O)C(=O)COc2c1cc1n(c2=O)Cc2c-1nc1cccc(C(C)C)c1c2[Si](C)(C)C |  | inactive: -2.73%
Cc1ccc(C)c2sc(NC(=O)c3ccc(S(=O)(=O)N4CCC(C)CC4)cc3)nc12 | inconclusive: 39.8 µM [inhibitor, single point] | 
CC(/C=N/NC(=O)c1cc(-c2ccncc2)nc2ccccc12)=C\c1ccco1 | inconclusive: 39.8 µM [activator, single point] | 
COc1ccc(OC)c(NS(=O)(=O)c2cc3c(cc2Cl)N(C(C)=O)CCO3)c1 |  | inactive: -8.72%
CCOc1ccc(NC(=O)CC2C(=O)N(c3ccc(F)cc3)C(=O)N2Cc2ccc(OC)c(OC)c2)cc1 (stereo unspecified) | inconclusive: 31.6 µM [activator, single point] | 
COC(=O)CSC1=C(C#N)C(c2ccsc2)CC(=O)N1 (stereo unspecified) | inconclusive: 39.8 µM [inhibitor, single point] | 
Cn1c(=O)oc2cc(S(=O)(=O)NC(Cc3ccccc3)C(=O)Nc3ccc(F)cc3)ccc21 (stereo unspecified) |  | inactive: -4.03%
CSc1ccc(C(=S)N2CCN(C)CC2)cc1 |  | inactive: 11.3%
Cc1ccc(Cn2c(C(=O)O)c(CNCc3ccc(OC(C)C)cc3)c3ccc(C)cc32)cc1 | inconclusive: 39.8 µM [inhibitor, single point] | 
NS(=O)(=O)c1ccc(NC(=O)CCC2CCCCC2)cc1 | inconclusive: 39.8 µM [inhibitor, single point] | 
CC(=O)OCC1OC(n2ccc3ccccc32)C(OC(C)=O)C(OC(C)=O)C1OC(C)=O (stereo unspecified) | inconclusive: 39.8 µM [activator, single point] | 
COc1cccc(-n2c(=O)c3c(C)c(C)sc3n(CC(=O)NCCc3ccc(OC)c(OC)c3)c2=O)c1 | inconclusive: 3.16 µM [activator, single point] | 
Cc1c(CCC(=O)NCCc2ccccc2)c(=O)oc2c(C)c(O)ccc12 |  | inactive: -2.61%
COc1ccc(Cl)cc1C(=O)Nc1ccccc1N1CCN(C(=O)C(C)C)CC1 | inconclusive: 31.6 µM [activator, single point] | 
Cc1ccc(C(C)C)c(OCCSc2nc(-c3ccccc3F)nc3cc(=O)[nH]n23)c1 | inconclusive: 3.16 µM [inhibitor, partial curve] | 
O=C(COC(=O)/C(=C/c1cccs1)c1cccs1)NC(c1ccccc1)c1ccccc1 | inconclusive: 31.6 µM [inhibitor, single point] | 
Cc1ccccc1Nc1cc(C(=O)NCCCN2CCN(c3cccc(Cl)c3)CC2)c2ccccc2n1 | inconclusive: 39.8 µM [inhibitor, single point] | 
CCCN(C(=O)c1cc2c(=O)oc3ccccc3c2s1)c1ccc(CC)cc1 |  | inactive: -5.08%
